No constants are given. Whether binding was seen depends on the method and setting. In cells and extracts the contact can be indirect. Some entries that bind do so weakly or less than the wild type. Tags and fused reporters may be left off the sequences shown.

Amino acid sequences for entries named in this document (tags omitted). Residues count along the entry.
UniProt P14625, residues 22-803: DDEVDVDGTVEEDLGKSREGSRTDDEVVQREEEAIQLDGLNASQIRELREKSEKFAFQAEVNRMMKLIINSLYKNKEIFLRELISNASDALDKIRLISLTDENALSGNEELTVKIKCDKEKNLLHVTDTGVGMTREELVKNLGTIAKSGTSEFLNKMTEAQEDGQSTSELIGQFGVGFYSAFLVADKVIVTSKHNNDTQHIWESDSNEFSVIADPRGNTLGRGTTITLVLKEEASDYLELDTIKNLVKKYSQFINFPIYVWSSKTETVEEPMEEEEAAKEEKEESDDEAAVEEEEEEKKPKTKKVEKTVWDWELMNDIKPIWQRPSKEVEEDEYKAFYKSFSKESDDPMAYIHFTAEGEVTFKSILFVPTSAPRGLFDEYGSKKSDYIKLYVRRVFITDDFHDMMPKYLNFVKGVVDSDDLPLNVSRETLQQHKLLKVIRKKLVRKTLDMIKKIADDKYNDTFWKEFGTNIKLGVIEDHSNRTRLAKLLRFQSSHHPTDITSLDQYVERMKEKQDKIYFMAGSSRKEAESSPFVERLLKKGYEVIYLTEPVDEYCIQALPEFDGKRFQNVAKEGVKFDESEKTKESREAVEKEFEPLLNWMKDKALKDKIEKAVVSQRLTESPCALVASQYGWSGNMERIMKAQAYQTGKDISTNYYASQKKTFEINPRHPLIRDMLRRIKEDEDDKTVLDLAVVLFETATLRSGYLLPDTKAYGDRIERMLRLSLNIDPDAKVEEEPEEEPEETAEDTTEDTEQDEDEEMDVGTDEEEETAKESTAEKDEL
UniProt Q9UBS4, residues 23-358: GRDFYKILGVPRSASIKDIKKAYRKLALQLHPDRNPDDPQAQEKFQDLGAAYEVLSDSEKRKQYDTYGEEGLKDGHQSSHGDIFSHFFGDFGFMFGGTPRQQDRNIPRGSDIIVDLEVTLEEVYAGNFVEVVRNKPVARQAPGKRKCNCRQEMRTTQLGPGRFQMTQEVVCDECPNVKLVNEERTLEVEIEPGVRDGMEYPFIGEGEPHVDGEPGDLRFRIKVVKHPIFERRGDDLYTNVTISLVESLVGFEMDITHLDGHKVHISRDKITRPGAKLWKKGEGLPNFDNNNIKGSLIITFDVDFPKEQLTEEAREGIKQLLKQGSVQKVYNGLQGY
UniProt P11021, residues 19-654: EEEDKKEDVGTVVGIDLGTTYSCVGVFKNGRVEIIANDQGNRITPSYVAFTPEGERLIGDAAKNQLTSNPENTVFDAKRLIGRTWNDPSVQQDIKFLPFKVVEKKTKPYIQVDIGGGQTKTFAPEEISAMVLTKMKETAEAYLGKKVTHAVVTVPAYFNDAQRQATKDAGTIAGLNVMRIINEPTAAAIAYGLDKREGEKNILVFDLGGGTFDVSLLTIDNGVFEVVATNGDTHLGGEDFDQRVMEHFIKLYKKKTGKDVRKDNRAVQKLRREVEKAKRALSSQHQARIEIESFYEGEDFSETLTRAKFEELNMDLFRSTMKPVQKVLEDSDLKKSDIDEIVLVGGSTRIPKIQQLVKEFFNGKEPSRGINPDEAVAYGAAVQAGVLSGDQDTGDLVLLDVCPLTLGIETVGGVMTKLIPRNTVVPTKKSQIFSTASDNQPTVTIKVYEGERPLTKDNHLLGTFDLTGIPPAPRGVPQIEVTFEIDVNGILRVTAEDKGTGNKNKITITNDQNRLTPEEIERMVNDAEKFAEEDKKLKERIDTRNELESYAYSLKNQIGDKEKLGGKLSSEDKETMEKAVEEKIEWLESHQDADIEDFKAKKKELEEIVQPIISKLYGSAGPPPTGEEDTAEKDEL

The text below walks through data of publication PMC6302113.

In test [1] the target is T1, IL-22 binding protein isoform-1 (IL-22BPi1), C-terminally myc-FLAG-tagged (human) (UniProt Q969J5).
T1 sequence: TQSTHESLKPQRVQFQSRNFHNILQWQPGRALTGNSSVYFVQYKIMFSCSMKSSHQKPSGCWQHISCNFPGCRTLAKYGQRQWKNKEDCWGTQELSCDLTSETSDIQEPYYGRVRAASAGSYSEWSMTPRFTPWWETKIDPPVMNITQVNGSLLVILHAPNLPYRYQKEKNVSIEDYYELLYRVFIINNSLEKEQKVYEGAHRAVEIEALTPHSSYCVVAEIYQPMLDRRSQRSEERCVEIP
As to the kind of experiment: co-IP; anti-FLAG resin from lysates of transiently transfected cells, immunoblot for endogenous ER chaperones (Supplementary Figure 5; Figure 4C: HEK293 treated with 100 ng/ml Mut SubAB or SubAB for 3 h, blot for GRP78).

For test [2], the target named is T2, IL-22 binding protein isoform-2 (IL-22BPi2), C-terminally myc-FLAG-tagged (human) (UniProt Q969J5).
T2 sequence: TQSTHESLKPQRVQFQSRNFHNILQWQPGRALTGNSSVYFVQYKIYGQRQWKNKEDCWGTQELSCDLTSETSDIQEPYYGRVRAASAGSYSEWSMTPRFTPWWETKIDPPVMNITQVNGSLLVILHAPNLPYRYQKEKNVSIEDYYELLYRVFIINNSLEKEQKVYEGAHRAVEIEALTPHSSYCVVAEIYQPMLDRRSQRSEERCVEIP
Described as above.

For test [3], the target named is T3, IL-22 binding protein isoform-3 (IL-22BPi3), FLAG-tagged (human) (UniProt Q969J5).
T3 sequence: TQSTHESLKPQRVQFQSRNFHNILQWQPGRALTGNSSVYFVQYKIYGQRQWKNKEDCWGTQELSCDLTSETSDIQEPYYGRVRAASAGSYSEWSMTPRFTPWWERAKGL
The test is described as above.

Test [4] concerns the target T1, IL-22 binding protein isoform-1 (IL-22BPi1), C-terminally myc-FLAG-tagged (human). As to the kind of experiment: co-IP; HEK293 transiently co-transfected, lysed after 24 h; FLAG resin to precipitate IL-22BP isoforms or IL-2EX4; immunoblot for GRP94 and FLAG.
Another test addresses S-tagged GRP94 (UniProt P14625). As to the kind of experiment: co-IP; reverse IP: HEK293 transiently co-transfected, lysed after 24 h; S-tag (S-protein) agarose to precipitate S-tagged GRP94; immunoblot for GRP94 and FLAG. (In general: Immunoblotting shows a protein as a band on a membrane.)
For test [5], the target named is T1, IL-22 binding protein isoform-1 (IL-22BPi1), C-terminally myc-FLAG-tagged (human). As to the kind of experiment: co-IP; HEK293 co-transfected with myc-FLAG IL-22BPi1 and inducible FLAG-only IL-22BPi2 (Tet-Express activator for 24 h); anti-Myc agarose, then FLAG immunoprecipitation of the flow-through; immunoblot for FLAG.

As to “ERdj3, endogenous (from UniProt Q9UBS4 23-358)”, the binding entry in test [1] and in test [2] was “binds” throughout.

Regarding “GRP94, endogenous (from UniProt P14625 22-803)”, the binding entry in test [1] is “binds”.

For the molecule “GRP78, full-length endogenous (from UniProt P11021 19-654)”, the binding result in test [1] is recorded as “binds”; in test [3], “no binding”; in test [2], “binds”.

On to “S-tagged GRP94 (from UniProt P14625 22-803)”, for which the binding result in test [4] is listed as “binds”.

B1: IL-22 binding protein isoform-3 (IL-22BPi3), FLAG-tagged (protein, UniProt Q969J5-3 22-130)
chain: TQSTHESLKPQRVQFQSRNFHNILQWQPGRALTGNSSVYFVQYKIYGQRQWKNKEDCWGTQELSCDLTSETSDIQEPYYGRVRAASAGSYSEWSMTPRFTPWWERAKGL
Consider B1, for which, in the test with S-tagged GRP94, the binding result is reported as “no binding”.

B2: calnexin, endogenous (protein, UniProt P27824 21-592)
chain: HDGHDDDVIDIEDDLDDVIEEVEDSKPDTTAPPSSPKVTYKAPVPTGEVYFADSFDRGTLSGWILSKAKKDDTDDEIAKYDGKWEVEEMKESKLPGDKGLVLMSRAKHHAISAKLNKPFLFDTKPLIVQYEVNFQNGIECGGAYVKLLSKTPELNLDQFHDKTPYTIMFGPDKCGEDYKLHFIFRHKNPKTGIYEEKHAKRPDADLKTYFTDKKTHLYTLILNPDNSFEILVDQSVVNSGNLLNDMTPPVNPSREIEDPEDRKPEDWDERPKIPDPEAVKPDDWDEDAPAKIPDEEATKPEGWLDDEPEYVPDPDAEKPEDWDEDMDGEWEAPQIANPRCESAPGCGVWQRPVIDNPNYKGKWKPPMIDNPSYQGIWKPRKIPNPDFFEDLEPFRMTPFSAIGLELWSMTSDIFFDNFIICADRRIVDDWANDGWGLKKAADGAAEPGVVGQMIEAAEERPWLWVVYILTVALPVFLVILFCCSGKKQTSGMEYKKTDAPQPDVKEEEEEKEEEKDKGDEEEEGEEKLEEKQKSDAEEDGGTVSQEEEDRKPKAEEDEILNRSPRNRKPRRE
As for B2, the binding result in test [1] and in test [2] was “binds” throughout.

B3: IL-22 binding protein isoform-1 (IL-22BPi1), C-terminally myc-FLAG-tagged (protein, UniProt Q969J5 22-263)
chain: TQSTHESLKPQRVQFQSRNFHNILQWQPGRALTGNSSVYFVQYKIMFSCSMKSSHQKPSGCWQHISCNFPGCRTLAKYGQRQWKNKEDCWGTQELSCDLTSETSDIQEPYYGRVRAASAGSYSEWSMTPRFTPWWETKIDPPVMNITQVNGSLLVILHAPNLPYRYQKEKNVSIEDYYELLYRVFIINNSLEKEQKVYEGAHRAVEIEALTPHSSYCVVAEIYQPMLDRRSQRSEERCVEIP
Take B3: the binding result with S-tagged GRP94 is on record as “binds”.

B4: GRP170, endogenous (protein, UniProt Q9Y4L1 33-999)
chain: LAVMSVDLGSESMKVAIVKPGVPMEIVLNKESRRKTPVIVTLKENERFFGDSAASMAIKNPKATLRYFQHLLGKQADNPHVALYQARFPEHELTFDPQRQTVHFQISSQLQFSPEEVLGMVLNYSRSLAEDFAEQPIKDAVITVPVFFNQAERRAVLQAARMAGLKVLQLINDNTATALSYGVFRRKDINTTAQNIMFYDMGSGSTVCTIVTYQMVKTKEAGMQPQLQIRGVGFDRTLGGLEMELRLRERLAGLFNEQRKGQRAKDVRENPRAMAKLLREANRLKTVLSANADHMAQIEGLMDDVDFKAKVTRVEFEELCADLFERVPGPVQQALQSAEMSLDEIEQVILVGGATRVPRVQEVLLKAVGKEELGKNINADEAAAMGAVYQAAALSKAFKVKPFVVRDAVVYPILVEFTREVEEEPGIHSLKHNKRVLFSRMGPYPQRKVITFNRYSHDFNFHINYGDLGFLGPEDLRVFGSQNLTTVKLKGVGDSFKKYPDYESKGIKAHFNLDESGVLSLDRVESVFETLVEDSAEEESTLTKLGNTISSLFGGGTTPDAKENGTDTVQEEEESPAEGSKDEPGEQVELKEEAEAPVEDGSQPPPPEPKGDATPEGEKATEKENGDKSEAQKPSEKAEAGPEGVAPAPEGEKKQKPARKRRMVEEIGVELVVLDLPDLPEDKLAQSVQKLQDLTLRDLEKQEREKAANSLEAFIFETQDKLYQPEYQEVSTEEQREEISGKLSAASTWLEDEGVGATTVMLKEKLAELRKLCQGLFFRVEERKKWPERLSALDNLLNHSSMFLKGARLIPEMDQIFTEVEMTTLEKVINETWAWKNATLAEQAKLPATEKPVLLSKDIEAKMMALDREVQYLLNKAKFTKPRPRPKDKNGTRAEPPLNASASDQGEKVIPPAGQTEDAEPISEPEKVETGSEPGDTEPLELGGPGAEPEQKEQSTGQKRPLKNDEL
On to B4, for which the binding result in test [1] and in test [2] was “binds” throughout.

B5: IL-22BPi2 with only a FLAG tag, from an inducible pTRE3G-based vector (protein, UniProt Q969J5-2 22-231)
chain: TQSTHESLKPQRVQFQSRNFHNILQWQPGRALTGNSSVYFVQYKIYGQRQWKNKEDCWGTQELSCDLTSETSDIQEPYYGRVRAASAGSYSEWSMTPRFTPWWETKIDPPVMNITQVNGSLLVILHAPNLPYRYQKEKNVSIEDYYELLYRVFIINNSLEKEQKVYEGAHRAVEIEALTPHSSYCVVAEIYQPMLDRRSQRSEERCVEIP
On to B5, for which, in test [5], the binding result is given as “no binding”.
